Data reported in the RNAGym collection of RNA variant scans (doi:10.1093/nar/gkz1192).
The source gives no read counts; variants with many changes may rest on few reads.

B1: CPEB3 Ribozyme (parent)
chain: UAACAGGGGGCCACAGCAGAAGCGUUCACGUCGCAGCCCCUGUCAGAUUCUGGUGAAUCUGCGAAUUCUGCUGUAUAUCUC

Variants of: B1
Assay: self-cleavage, relative activity (ratio to wild type); higher = more cleavage; in vitro, sequencing
Outline: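 After error-prone PCR and barcoding, CPEB3 ribozyme mutant libraries were transcribed with T7 RNA polymerase at 37°C for 5 hours, then given 15 min with DNase I before an EDTA stop, and they cleaved during both steps. Reverse transcription with template switching preceded Illumina sequencing. Relative activity divides a variant's cleaved/total read fraction by the unmutated ribozyme's. At least 5 reads were required per variant, and three batches were averaged.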
UAACGGGGGGCCAUAGCAGAAGCGUUCACGUCGCAGCCCCUGCCAGAUUCUGGUGAACCUGCGAAUUCUGCUGUAUAUCUC [A5G C14U U43C U58C] gave a self-cleavage of 0.11. Variant UAACGGGGGGCCAUAGCAGAAGCGUUCACGUCGCAGCCCCUGUCAGAUUCUGGUGAAUCAGCGAAUUCUGCUGUAUAUCUC [A5G C14U U60A] has a self-cleavage of 0.56. Work on UAACGGGGGGCCACAGAAGAAGCGUUCACAUCGCAGCCCCUGUCAGAUUCUGGUGAAUCUGCGAAUUCUGCUGUAUAUAUC [A5G C17A G30A C79A] yielded a self-cleavage of 0.69. With UAACGGGGGGCCACAGAAGAAGCGUUCACGUCGCAGCCCCUGUCAGAUUCUGGUGAAUCUGCGAAUUCCGCUGUAUAUCUC [A5G C17A U69C] the self-cleavage was 0.1. For UAACGGGGGGCCACAGGUGAAGCGUUCACGUCGCAGCCCCUGUCAGAUUCAGGUGAAUCCGCGAAUUCUGCUGUAUACCUC [A5G C17G A18U U51A U60C U78C], the self-cleavage was 0.03. For UAACGGGGGGCCACAGGAGAAGCGUUCACGUCGCAGCCCCUGUCAGAUUCUGGUGGAUCUGCGAAUUCUGCUGUAUUUCUC [A5G C17G A56G A77U], the self-cleavage was 0.07. For UAACGGGGGGCCACAGGAGAAGCGUACACGUCGCGGCCCCUGUCGGAUUCUAGUGAAUCUGCGAACUCUGCUGUAUAUCUC [A5G C17G U26A A35G A45G G52A U66C], the self-cleavage was 0.15. UAACGGGGGGCCACAGUUGAAGCGUUCACGUCGCAGCCCCUGUCAGAUUCUGGUGAAUCUGCGAAUUCUGCCGUGUAACUC [A5G C17U A18U U72C A75G U78A] showed a self-cleavage of 0.27. Variant UAACGGGGGGCCACAGUAGAAGCGUUCUCGUCGCAGCCCCUGUCAGGUUCUGGUGAAUCUGCGAACUCUGCUGUAUAUCUC [A5G C17U A28U A47G U66C] has a self-cleavage of 0.3. Variant UAACGGGGGGCCACAGUAGAAGCGUUCACGUCGCUGCCCCUGUCAGAUUCUGGUGAAUCUGCGAAUUCUGCUGUAUAUCCC [A5G C17U A35U U80C] has a self-cleavage of 0.39. For UAACGGGGGGCCACAGUAGAAGCGUUCACGUCGUAGCCCCUGUCAGUUUCAGGUGAAUCUGCGGAUCCUGCUGUAUAUCUC [A5G C17U C34U A47U U51A A64G U67C], the self-cleavage was 0.08. UAACGGGGGGCCACAGUAGAAGCGCUCGCGUCGCAGCCCCCGUCAGAUUCUGGUGAAUCUGCGAAUUCUGCUGUAUAUCUC [A5G C17U U25C A28G U41C] showed a self-cleavage of 0.42. For UAACGGGGGGCCACAGUAGAAGCGCUCGCGUCGCAGCCCCUGUCAGAUUCUGGUGAAUCUGCGAAUUCUGCAGUAUAUCUC [A5G C17U U25C A28G U72A], the self-cleavage was 0.09. For UAACGGGGGGCCACAGUAGAAGCGCUCACGUCGCAGCCCCUGUCGGAUUCUGGUGAAUCUGCGAAUUCUGCUAUAUAUCUC [A5G C17U U25C A45G G73A], the self-cleavage was 0.54. Variant UAACGGGGGGCCACAGUAGAAGCGUUCACGUCGCAGCCCCUGUCAGAUUCUGGAGAAUCUGCUAAUUCUGCUGUUUAUCUC [A5G C17U U54A G63U A75U] has a self-cleavage of 0.81. UAACGGGGGGCCACAGUAGAAGCGUUCACGUCGCAGCCCCUGUCAGAUUCUGGUGAAUCCGCGAAUUCUGCAGUAUAUCUC [A5G C17U U60C U72A] gave a self-cleavage of 0.17. For UAACGGGGGGCCACAGCAGAAGAGUUCACGUCGCAGCCCCUGUCAGGUUCUGGUGAAUCUGCGAAUUCUGCUGUAUAUCUC [A5G C23A A47G], the self-cleavage was 0.69. Work on UAACGGGGGGCCACAGCAGAAGAGUUCACGUCGCAGCCCCUGUCAGAUUCUGGUGAAUCUGCGAAUUCUGCAUUAUAUCUC [A5G C23A U72A G73U] yielded a self-cleavage of 0.08. UAACGGGGGGCCACAGCAGAAGGGUUCACGUCGCAGCCCCUGUCGGAUUCUGGUGAAUCUGCGAAUUCUGCUGUGUAUCUC [A5G C23G A45G A75G] gave a self-cleavage of 0.18. Variant UAACGGGGGGCCACAGCAGAAGGGUUCACGUCGCAGCCCCUGUCAGGUUCUGGUGAAUCUGCGGACUCUGCUGUAUAUAUC [A5G C23G A47G A64G U66C C79A] has a self-cleavage of 0.06. For UAACGGGGGGCCACAGCAGAAGUGUUCACGUCGCGGCCCCUGUCAGAUUCUGGCGAAUCCGCGAUUCCUGCUGUAUAUCUC [A5G C23U A35G U54C U60C A65U U67C], the self-cleavage was 0.22. Work on UAACGGGGGGCCACAGCAGAAGUGUCCACGUCGCAGCCCCUGUCAGAUUCUGGUGAAUCUGCGAGUUCUGCUGUAUAUCUC [A5G C23U U26C A65G] yielded a self-cleavage of 0.45. UAACGGGGGGCCACAGCAGAAGUGUUCACGCCGCAGCCCCUGUCAGAUUCUGGUGAAUCUGCGAAUUCUGCUGUAUAUCUC [A5G C23U U31C] showed a self-cleavage of 0.08. UAACGGGGGGCCACAGCAGAAGUGUUCACGUCGCAGCCCCCGUCAGAUUCUGGUGAAUCUGCGAAUUCUGCUGUAUAUCUC [A5G C23U U41C] gave a self-cleavage of 0.24. With UAACGGGGGGCCACAGCAGAAGUGUUCACGUCGCAGCCCCUGUCAGAUUCUGGCGAAUCUGCGAAUACUGCUGUAUAUCUC [A5G C23U U54C U67A] the self-cleavage was 0.09. UAACGGGGGGCCACAGCAGAAGCGUUAACGUCGCAGGCCCUAUCAGAUUCUGGUGAAUCUGCGAAUUCUGCUGUAUGUCUC [A5G C27A C37G G42A A77G] gave a self-cleavage of 0.22. Work on UAACGGGGGGCCACAGCAGAAGCGUUAACGACGCAGCCCCUGUCAGAUUCUGGUGAAUCUGCGAAUUCUGCUGUAUAUCAC [A5G C27A U31A U80A] yielded a self-cleavage of 0.09. UAACGGGGGGCCACAGCAGAAGCGUUAACGUCGCAGCCCCUGUCAGAUCCUGGUGAAUCUGCGAAUUCUGCUGUAUACCUC [A5G C27A U49C U78C] gave a self-cleavage of 0.24. UAACGGGGGGCCACAGCAGAAGCGUUAACGUCGCAGCCCCUGUCAGAUUCUGGUGAAUCUGCGAACUCUGAUGUAUAUCUC [A5G C27A U66C C71A] gave a self-cleavage of 0.14. Variant UAACGGGGGGCCACAGCAGAAGCGUUGACGUCACAGCCCCUGUCAGAUGCUGGUGAAUCUGCGAAUUCUGCUGUAUAUCUC [A5G C27G G33A U49G] has a self-cleavage of 0.07. UAACGGGGGGCCACAGCAGAAGCGUUUACGUCGCAGCCCUCGUCAGAUUCUGGUGAAUCUGCGAACUCUGCUGUAUAUCUC [A5G C27U C40U U41C U66C] gave a self-cleavage of 0.11. With UAACGGGGGGCCACAGCAGAAGCGUUCAAGUCGUAGCCCCUGCCAGAUCCUGGUGAAUCUGCGAAUUCUGCUGUAUAUCUC [A5G C29A C34U U43C U49C] the self-cleavage was 0.25. Work on UAACGGGGGGCCACAGCAGAAGCGUUCAAGUCGUAGCCCCUGUCAGAGUCUGGCGAAUCUGCGAAUACUGCUGUAUAUCUC [A5G C29A C34U U48G U54C U67A] yielded a self-cleavage of 0.17. UAACGGGGGGCCACAGCAGAAGCGUUCAGGUCGCUGCCCCCGUCAGAUUCUGGUGAAUCUGCGAAUUCUGCUGUAUAUCUC [A5G C29G A35U U41C] gave a self-cleavage of 0.3.
